Source: the supplement of paper PMC12355420
Counter-ions that a name gives are not always drawn. This is one part of the list. Repeats are few or missing, and single values can be far off.

System: HeLa VPS33A reporter cells
Assay: relative cell viability (CellMask signal) vs DMSO (fraction of DMSO); HeLa model of a glycosaminoglycan (GAG) storage disease; KI is knock-in and KO knock-out; SDC1 is syndecan 1; higher = less cytotoxic
Conditions: 50 µM; 24 h
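Further: primary screen of an FDA-approved drug library in HeLa reporter cells in 96-well format, CellMask signal normalized to DMSO-treated wells set as 1, under 0.5 deemed highly cytotoxic.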

| SMILES | relative cell viability |
| --- | --- |
| CCc1cc2c(cc1CC)CC(NC[C@H](O)c1ccc(O)c3[nH]c(=O)ccc13)C2 [Indacaterol Maleate] | 0.00575 |
| C=CC(=O)N1CCC[C@@H](n2nc(-c3ccc(Oc4ccccc4)cc3)c3c(N)ncnc32)C1 | 0.00463 |
| Fc1ccc(C(c2ccc(F)cc2)N2CCN(C/C=C/c3ccccc3)CC2)cc1 [Flunarizine 2HCl] | 0.0452 |
| Cc1cnc(Nc2ccc(OCCN3CCCC3)cc2)nc1Nc1cccc(S(=O)(=O)NC(C)(C)C)c1 | 0.00559 |
| Cc1c(-c2ccc(O)cc2)n(Cc2ccc(OCCN3CCCCCC3)cc2)c2ccc(O)cc12 [Bazedoxifene acetate] | 0.00262 |
| OC(CNCC(O)C1CCc2cc(F)ccc2O1)C1CCc2cc(F)ccc2O1 (centres undefined) [Nebivolol] | 0.0146 |
| COc1ccc2c(O[C@@H]3C[C@H]4C(=O)N[C@]5(C(=O)NS(=O)(=O)C6CC6)C[C@H]5/C=C\CCCCN(C)C(=O)[C@@H]4C3)cc(-c3nc(C(C)C)cs3)nc2c1C [Simeprevir] | 0.00339 |
| CCN(CC)CCCC(C)Nc1c2ccc(Cl)cc2nc2ccc(OC)cc12 (centres undefined) [Quinacrine 2HCl] | 0.00406 |
| C=CC(=O)Nc1cc(Nc2nccc(-c3cn(C)c4ccccc34)n2)c(OC)cc1N(C)CCN(C)C | 0.00443 |
| CSc1ccc2c(c1)N(CCC1CCCCN1C)c1ccccc1S2 (centres undefined) [Thioridazine HCl] | 0.00666 |
| CC[C@H](NC(=O)[C@H](C)NC)C(=O)N1C[C@@H](O)C[C@H]1Cc1c(-c2[nH]c3cc(F)ccc3c2C[C@@H]2C[C@H](O)CN2C(=O)[C@H](CC)NC(=O)[C@H](C)NC)[nH]c2cc(F)ccc12 | 0.24 |
| CC(=O)N1CCN(c2ccc(OCC3COC(Cn4ccnc4)(c4ccc(Cl)cc4Cl)O3)cc2)CC1 (centres undefined) [Ketoconazole] | 0.0222 |
| CCN(CC)CC#CCOC(=O)C(O)(c1ccccc1)C1CCCCC1 (centres undefined) [Oxybutynin chloride] | 0.0124 |
| CCC(C)(C)c1ccc(CC(C)CN2C[C@@H](C)O[C@@H](C)C2)cc1 (some centres undefined) [Amorolfine HCl] | 0.0104 |
| CO[C@H]1C[C@H](O[C@H]2[C@H](C)O[C@@H](O[C@@H]3/C(C)=C/C[C@@H]4C[C@@H](C[C@]5(C=C[C@H](C)[C@@H](C6CCCCC6)O5)O4)OC(=O)[C@@H]4C=C(C)[C@@H](O)[C@H]5OC/C(=C\C=C\[C@@H]3C)[C@]54O)C[C@@H]2OC)O[C@@H](C)[C@@H]1O [Doramectin] | 0.0117 |
| CCN(CCCc1ccccc1)CCCc1ccccc1 [Alverine Citrate] | 0.398 |
| Clc1ccc(C(Cn2ccnc2)OCc2c(Cl)cccc2Cl)c(Cl)c1 (centres undefined) [Isoconazole nitrate] | 0.00894 |
| N#Cc1ccc2[nH]cc(CCCCN3CCN(c4ccc5oc(C(N)=O)cc5c4)CC3)c2c1 [Vilazodone] | 0.191 |
| Cc1cc(C)c2c(c1)[C@@H](N(Cc1cc(C(F)(F)F)cc(C(F)(F)F)c1)c1nnn(C)n1)CCCN2C[C@H]1CC[C@H](C(=O)O)CC1 | 0.00343 |
| C=C1C(=O)O[C@H]2[C@H]1CC/C(C)=C/CC[C@@]1(C)O[C@@H]21 [Parthenolide] | 0.00761 |
| O=C(CCCN1CCC(O)(c2ccc(Cl)cc2)CC1)c1ccc(F)cc1 [Haloperidol hydrochloride] | 0.0123 |
| CS(=O)(=O)CCNCc1ccc(-c2ccc3ncnc(Nc4ccc(OCc5cccc(F)c5)c(Cl)c4)c3c2)o1 [Lapatinib Ditosylate*] | 0.0891 |
| CNCCC=C1c2ccccc2CCc2ccccc21 [Nortriptyline (hydrochloride)] | 0.00961 |
| CO[C@@]12[C@H](COC(N)=O)C3=C(C(=O)C(C)=C(N)C3=O)N1C[C@@H]1N[C@@H]12 [Mitomycin C] | 0.00479 |
| C=C[C@](C)(O)CC[C@@H]1[C@@]2(C)CCCC(C)(C)[C@@H]2CC[C@@]1(C)O [Sclareol] | 0.00569 |
| CCC1=C[C@@H]2CN(C1)Cc1c([nH]c3ccccc13)[C@@](C(=O)OC)(c1cc3c(cc1OC)N(C)[C@H]1[C@@](O)(C(=O)OC)[C@H](OC(C)=O)[C@]4(CC)C=CCN5CC[C@]31[C@@H]54)C2 [Vinorelbine ditartrate] | 0.00699 |
| CC(=O)c1cc2c(o1)C(=O)c1ccccc1C2=O [Napabucasin] | 0.00758 |
| O=C(O)c1ccc2c(c1)nc(Nc1cccc(Cl)c1)c1ccncc12 [CX-4945 (Silmitasertib)] | 0.355 |
| C=C1CCN([C@H](C)[C@](O)(Cn2cncn2)c2ccc(F)cc2F)CC1 [Efinaconazole] | 0.0496 |
